Measured values from the supplement of paper PMC10126150.
Values marked as one replicate rest on one cluster of the flow cell; about a third of the high ones do not repeat.

These sequences were tested on ATP (assay: switch fluorescence ratio, 500 uM ATP over buffer (Cy3 cluster intensity, sum of 5 cycles each) (fold (ratio)); higher = stronger signal-on switching upon ATP binding; sequences stand for … in TCGTCGGCAGCGTCAGATGTGTATAAGAGACAGTTTTTTTTTTTTTTTTTTTTTTTTT…TC). Settings: aptamer strand: ATP DNA aptamer (quencher-CACCTGGGGGAGTATTGCGGAGGAAGG + anchor), 100 nM annealed; ATP concentration: 500 uM; one replicate.
In short: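 Between each of five buffer/ATP cycles, the flow-cell was stripped with NaOH and re-annealed. Each cycle imaged Cy3-labelled switching-strand clusters, annealed to 100 nM quencher-labelled ATP aptamer on a modified Illumina MiSeq flow-cell, first in selection buffer and then after 15 min with 500 uM ATP at 22 °C. The fluorescence ratio is summed target-cycle over summed buffer-cycle Cy3 intensity per cluster, averaged per switch-domain sequence, with clusters outside 100-1000 RFU excluded.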
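Also: ATP exposure 15 min at 22 °C before imaging.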

| Sequence | switch fluorescence ratio |
| --- | --- |
| GACATAAACG | 1.01 |
| GACATAGATT | 0.999 |
| GACATATTTT | 1.05 |
| GACATCCCCC | 1.13 |
| GACATCCGGA | 0.995 |
| GACATCCGTG | 1.05 |
| GACATCGTTG | 1 |
| GACATGGGAC | 1.03 |
| GACATTGAGT | 1.03 |
| GACATTGCCA | 1.01 |
| GACCAACCTT | 1.42 |
| GACCAATCAG | 0.99 |
| GACCACACCC | 1.35 |
| GACCACCCAA | 1.28 |
| GACCAGCGTG | 1.03 |
| GACCCAGATC | 1 |
| GACCCCCAAG | 1.04 |
| GACCCCCTGT | 1.17 |
| GACCCTGAGG | 1.06 |
| GACCCTGTGA | 1.02 |
| GACCGCCAAT | 2.9 |
| GACCGCCGTG | 0.957 |
| GACCGTTCAC | 1.15 |
| GACCTAGGTG | 1.74 |
| GACCTCTACG | 1.14 |

| Sequence | switch fluorescence ratio |
| --- | --- |
| GACCTGCAGA | 0.98 |
| GACCTTAGGA | 1.01 |
| GACCTTGAA | 0.991 |
| GACCTTGTAG | 0.954 |
| GACGAACCTA | 1.32 |
| GACGAATTGA | 1.01 |
| GACGACTCTG | 0.959 |
| GACGAGAGAG | 1.01 |
| GACGAGAGT | 1.03 |
| GACGAGGGTC | 1.02 |
| GACGCAGTAT | 4.56 |
| GACGCCAATT | 2.45 |
| GACGCCCGTG | 0.954 |
| GACGCCGCCG | 1.08 |
| GACGCGAGAT | 4.5 |
| GACGCGTTTG | 1.02 |
| GACGCTGCGC | 1.2 |
| GACGCTTGGA | 1.1 |
| GACGGAAGGT | 1.07 |
| GACGGATTTT | 0.978 |
| GACGGCCAAA | 1.06 |
| GACGGCTGTT | 0.975 |
| GACGGTAGAA | 1.08 |
| GACGGTTAGT | 1 |
| GACGGTTTCG | 0.954 |

| Sequence | switch fluorescence ratio |
| --- | --- |
| GACGTACAGC | 1.8 |
| GACGTATTCA | 0.996 |
| GACGTCACAG | 1.12 |
| GACGTCGGCC | 1.02 |
| GACGTCGTCT | 0.936 |
| GACGTCTGTC | 1.04 |
| GACGTGTGTA | 1.06 |
| GACGTTGACC | 1.12 |
| GACGTTGAGT | 0.982 |
| GACTAAGGGC | 1.05 |
| GACTACTTG | 1.04 |
| GACTAGAGCA | 1.14 |
| GACTAGAGGT | 0.969 |
| GACTAGGGCA | 0.982 |
| GACTGACTTG | 0.959 |
| GACTGCCTCG | 0.978 |
| GACTGCCTTA | 1.03 |
| GACTGGCCGG | 1.02 |
| GACTGTTCAT | 1.01 |
| GACTGTTGGT | 0.953 |
| GACTTAATAT | 0.975 |
| GACTTAGGTG | 1.04 |
| GACTTATCTG | 1 |
| GACTTCAACG | 1.01 |
| GACTTCTCTG | 1.02 |

| Sequence | switch fluorescence ratio |
| --- | --- |
| GACTTGCA | 1.1 |
| GACTTGTTAT | 0.99 |
| GACTTTACCG | 0.95 |
| GACTTTAGAG | 0.97 |
| GACTTTAGTG | 0.983 |
| GAGAAAAGTA | 0.98 |
| GAGAAAGAA | 0.995 |
| GAGAAAGGT | 0.95 |
| GAGAAATCGT | 1.02 |
| GAGAACAATT | 0.96 |
| GAGAATAGAA | 0.99 |
| GAGAATAGCT | 1 |
| GAGAATCTAT | 0.982 |
| GAGAATGTGG | 1.03 |
| GAGACAGTCA | 1 |
| GAGACGCCTA | 1.06 |
| GAGACGTAAA | 1.03 |
| GAGACTATAT | 1.04 |
| GAGAGAAACA | 0.949 |
| GAGAGACACT | 0.978 |
| GAGAGGGATC | 1.08 |
| GAGAGGGCCA | 1.02 |
| GAGAGGGGTG | 1.03 |
| GAGAGTCAAA | 0.969 |
| GAGAGTTTGC | 0.957 |

| Sequence | switch fluorescence ratio |
| --- | --- |
| GAGATAGG | 0.997 |
| GAGATATAAA | 0.981 |
| GAGATCACGT | 0.976 |
| GAGATCGCT | 1.02 |
| GAGATCTGGG | 0.949 |
| GAGATCTTGT | 0.964 |
| GAGATGACTT | 1.07 |
| GAGATGGTC | 0.973 |
| GAGATGTGCC | 0.956 |
| GAGATGTTGA | 0.961 |
| GAGATTGAGT | 0.985 |
| GAGATTTGCA | 1 |
| GAGCAACGGG | 1.02 |
| GAGCAAGCGG | 1.09 |
| GAGCACCGGA | 1.1 |
| GAGCACGATC | 1.11 |
| GAGCACTAAG | 1.02 |
| GAGCATAGGT | 1.04 |
| GAGCATGGTT | 1 |
| GAGCATTCAT | 1.01 |
| GAGCATTTGT | 1.02 |
| GAGCCGATAT | 1.01 |
| GAGCGAGCGT | 1.01 |
| GAGCGCCTTC | 1.03 |
| GAGCGGCAAT | 1.21 |

| Sequence | switch fluorescence ratio |
| --- | --- |
| GAGCGGTACG | 0.935 |
| GAGCGGTCCC | 1 |
| GAGCGTCCGT | 0.953 |
| GAGCTACGT | 1.01 |
| GAGCTACTCT | 1.31 |
| GAGCTAGTAT | 1.04 |
| GAGCTAGTTT | 1.08 |
| GAGCTGGTTT | 1.03 |
| GAGCTTAAGG | 0.97 |
| GAGCTTCGG | 1.03 |
| GAGCTTGTCT | 1.04 |
| GAGCTTGTGT | 0.998 |
| GAGGAACGG | 0.981 |
| GAGGACCCAA | 1.03 |
| GAGGACGTTT | 1.03 |
| GAGGACTGCT | 0.982 |
| GAGGATATTT | 0.983 |
| GAGGATTTCT | 1.05 |
| GAGGCAAAGG | 1.23 |
| GAGGCAAGGG | 1.03 |
| GAGGCACATG | 1.05 |
| GAGGCCAGAA | 1.01 |
| GAGGCGGTGT | 0.996 |
| GAGGCGTCCT | 1.08 |
| GAGGGAACTT | 0.995 |

| Sequence | switch fluorescence ratio |
| --- | --- |
| GAGGGCCAA | 1 |
| GAGGGCCTAA | 1.02 |
| GAGGGCTAAG | 0.968 |
| GAGGGGACAA | 0.959 |
| GAGGGGATGG | 1.06 |
| GAGGGGCGGG | 0.981 |
| GAGGGGCTAT | 0.977 |
| GAGGGGGTAA | 1.04 |
| GAGGGTATG | 1.03 |
| GAGGGTATGT | 0.992 |
| GAGGTACGTG | 1.02 |
| GAGGTAGAAT | 1.02 |
| GAGGTAGGAT | 1 |
| GAGGTATACG | 1.02 |
| GAGGTCCGTA | 0.92 |
| GAGGTCCTGT | 0.98 |
| GAGGTCGGCG | 1.02 |
| GAGGTCTGT | 0.963 |
| GAGGTGAAAC | 0.99 |
| GAGGTGAAAG | 1.02 |
| GAGGTGGACT | 1.03 |
| GAGGTGGGAA | 1.05 |
| GAGGTTCAGC | 0.908 |
| GAGTAACCCA | 1.01 |
| GAGTAAGAGA | 0.961 |

| Sequence | switch fluorescence ratio |
| --- | --- |
| GAGTAATGTG | 1.01 |
| GAGTACGGA | 1.03 |
| GAGTACTTAT | 1.01 |
| GAGTACTTT | 1 |
| GAGTAGAGAA | 1.04 |
| GAGTAGCAGG | 0.992 |
| GAGTATATAG | 1.01 |
| GAGTATTAAA | 0.959 |
| GAGTCCCACT | 1.04 |
| GAGTCCGTTT | 1.09 |
| GAGTCGATCT | 0.963 |
| GAGTCGTTTT | 1.01 |
| GAGTCTGTAA | 1.52 |
| GAGTCTGTTA | 1.03 |
| GAGTGATTGT | 0.966 |
| GAGTGGAATT | 1.02 |
| GAGTGGGATA | 0.962 |
| GAGTGGTGAA | 1.02 |
| GAGTGTAATT | 1.01 |
| GAGTGTGGGA | 1.01 |
| GAGTGTTATC | 1.03 |
| GAGTTCCCCG | 1.08 |
| GAGTTGAGTG | 0.963 |
| GAGTTGGTAC | 1.05 |
| GAGTTTGCGG | 0.929 |
